Source: the supplement of paper PMC3334620
The full ranking holds about 33,000 sequences; the median of “E-score (-0.5 to 0.5)” is about -0.035, and the highest 2% start at about 0.35. The list shows a part of the results.

Target: T1, Pdr3 (UniProt P33200)
T1 sequence: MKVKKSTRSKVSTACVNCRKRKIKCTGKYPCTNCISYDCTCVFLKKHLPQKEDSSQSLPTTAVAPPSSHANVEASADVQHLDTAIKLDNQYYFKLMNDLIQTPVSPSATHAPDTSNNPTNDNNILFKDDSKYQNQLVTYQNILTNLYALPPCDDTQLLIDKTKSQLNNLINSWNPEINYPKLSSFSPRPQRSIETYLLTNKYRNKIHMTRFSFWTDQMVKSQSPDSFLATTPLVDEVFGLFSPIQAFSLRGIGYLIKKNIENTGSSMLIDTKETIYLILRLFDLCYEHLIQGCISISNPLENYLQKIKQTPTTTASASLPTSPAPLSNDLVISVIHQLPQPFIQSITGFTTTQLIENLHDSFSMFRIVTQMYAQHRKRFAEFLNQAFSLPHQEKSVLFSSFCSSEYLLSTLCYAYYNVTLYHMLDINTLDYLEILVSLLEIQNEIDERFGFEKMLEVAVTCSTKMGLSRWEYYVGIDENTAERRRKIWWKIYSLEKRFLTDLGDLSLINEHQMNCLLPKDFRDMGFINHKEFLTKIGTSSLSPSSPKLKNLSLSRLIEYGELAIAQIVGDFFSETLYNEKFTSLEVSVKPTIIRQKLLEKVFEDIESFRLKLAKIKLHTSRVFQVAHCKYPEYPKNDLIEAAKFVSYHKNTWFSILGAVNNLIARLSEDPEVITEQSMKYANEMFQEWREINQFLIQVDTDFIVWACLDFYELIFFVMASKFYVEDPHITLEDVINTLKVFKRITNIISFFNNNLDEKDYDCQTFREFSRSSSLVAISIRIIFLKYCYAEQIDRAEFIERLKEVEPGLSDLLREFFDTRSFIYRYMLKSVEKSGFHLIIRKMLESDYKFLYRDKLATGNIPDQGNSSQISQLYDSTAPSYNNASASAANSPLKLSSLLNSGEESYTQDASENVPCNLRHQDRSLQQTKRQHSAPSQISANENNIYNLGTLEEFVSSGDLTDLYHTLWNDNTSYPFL
Assay: PBM E-score (8-mer binding enrichment) (E-score (-0.5 to 0.5)); higher = stronger / more preferred TF binding; most listed sequences are background and not binding sites
Settings: protein concentration: 200 nM; construct: GST-full length
Protocol: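 Universal 'all 10-mer' protein binding microarrays (Agilent AMADID 015681) probed with GST-tagged S. cerevisiae TFs (full-length or DBD) made by in vitro transcription/translation (PURExpress), about 100-200 nM. Bound TF was detected with fluorescent anti-GST. Each ungapped 8-mer (which stands for itself and its reverse complement) is scored by the PBM enrichment score (E-score), a modified Wilcoxon-Mann-Whitney statistic from -0.5 to +0.5, computed with the Universal PBM Analysis Suite. Scale: above 0.35 generally sequence-specific binding.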

Row | Sequence | PBM E-score
1 | AAGCGTGC | -0.0354
2 | TCTTTGCA | -0.167
3 | CATGTAGC | -0.0755
4 | CCGCAGAA | 0.22
5 | ATGACCCG | 0.0321
6 | GCATACGA | -0.127
7 | ATTTATGG | -0.171
8 | CTGCCTAA | -0.22
9 | GGAACAGA | 0.161
10 | CTCAGGTC | -0.00893
11 | GCCACCAC | -0.257
12 | CTCAACCC | 0.0237
13 | CACTTGCC | -0.0319
14 | CATGACCC | -0.0203
15 | CGACGCAC | -0.0357
16 | GATGGACC | 0.0708
17 | AGCCTATG | -0.257
18 | GTTCTCAA | -0.0516
19 | ACTACAAG | -0.124
20 | ACTTCGCG | 0.222
21 | CGTAGCAG | -0.0716
22 | GGACTTCA | 0.0537
23 | ACTTGGCA | -0.231
24 | CAGCTCCG | 0.291

Row | Sequence | PBM E-score
25 | CTCTAACC | -0.0554
26 | AACTATAA | 0.137
27 | TAAGCCTA | -0.0813
28 | CTTCTAAC | -0.311
29 | GACATGAA | 0.0502
30 | CGCTTTCA | 0.0784
31 | CGCGCACG | 0.275
32 | CTACAAGA | -0.0727
33 | CGTCTGTC | 0.149
34 | AATACTCG | -0.00624
35 | TAAGCGCA | -0.295
36 | ACCAATGG | 0.0557
37 | CACCCACC | 0.0132
38 | CCCCAGAA | 0.00938
39 | AAGGTATA | -0.219
40 | ATCCGCGA | 0.21
41 | GAGTGCCC | -0.00271
42 | GGTTCACA | -0.0772
43 | TAAGTTGA | -0.107
44 | GGCATACA | 0.0317
45 | CCCAGAGC | -0.229
46 | ACAGTCAC | -0.211
47 | ACTTCCCT | 0.0274
48 | CAGGCGTA | -0.145

Row | Sequence | PBM E-score
49 | ACCAGCAC | -0.204
50 | CCAAGCCG | -0.0356
51 | GGCGATGA | 0.0108
52 | AGCCCGAG | -0.044
53 | AGAGCTCT | -0.267
54 | CGGCCAGC | 0.233
55 | TATGGCCA | -0.0695
56 | AGTCGACA | 0.001
57 | CTTAACTC | -0.00401
58 | CCTCGAAA | -0.114
59 | AAGGAGTA | -0.0777
60 | ATCGTCTA | -0.188
61 | CGACGTGC | -0.015
62 | CGAACTTA | 0.0051
63 | AATTGTCG | 0.00999
64 | AATGCTGT | -0.243
65 | AGGCTAAT | 0.00914
66 | CACGCTTA | -0.185
67 | CATGTACC | -0.258
68 | GCCTGCCA | -0.00657
69 | AGTGTGCC | -0.0578
70 | CGGGGGTA | 0.176
71 | CCCGAAAA | 0.191
72 | GAGGATTA | -0.196

Row | Sequence | PBM E-score
73 | GCCGACAC | 0.0242
74 | GAACTTGC | 0.00484
75 | CTTCGATA | -0.0256
76 | ACCCGGAG | 0.38
77 | GCAGCACA | 0.0401
78 | GGCAGTAA | -0.0438
79 | CATAAGAC | -0.00962
80 | ATGGGTAG | -0.138
81 | TGACCGAA | 0.0838
82 | ACTGTAAA | -0.0558
83 | AAACCAAA | -0.0674
84 | CAGATCCA | 0.0976
85 | CAGGTGAA | -0.141
86 | CCAGCGAA | 0.0168
87 | CCGTACTC | 0.0572
88 | GGTCACCA | -0.195
89 | CTATCGAG | -0.015
90 | AAGCTAAT | -0.0341
91 | CGTGGGGC | 0.133
92 | AGTTATCG | 0.109
93 | CTGTGTAC | -0.0325
94 | ACCAACAT | -0.0113
